# T1: CD98hc on the surface of human tumor cell lines (human, UniProt P08195 1-529, On cells it is disulfide-linked to an SLC7-family light chain that the patent does not specify. That chain is not given.)
# T1 construct: also called 4F2hc; 4F2 antigen
# T1 sequence: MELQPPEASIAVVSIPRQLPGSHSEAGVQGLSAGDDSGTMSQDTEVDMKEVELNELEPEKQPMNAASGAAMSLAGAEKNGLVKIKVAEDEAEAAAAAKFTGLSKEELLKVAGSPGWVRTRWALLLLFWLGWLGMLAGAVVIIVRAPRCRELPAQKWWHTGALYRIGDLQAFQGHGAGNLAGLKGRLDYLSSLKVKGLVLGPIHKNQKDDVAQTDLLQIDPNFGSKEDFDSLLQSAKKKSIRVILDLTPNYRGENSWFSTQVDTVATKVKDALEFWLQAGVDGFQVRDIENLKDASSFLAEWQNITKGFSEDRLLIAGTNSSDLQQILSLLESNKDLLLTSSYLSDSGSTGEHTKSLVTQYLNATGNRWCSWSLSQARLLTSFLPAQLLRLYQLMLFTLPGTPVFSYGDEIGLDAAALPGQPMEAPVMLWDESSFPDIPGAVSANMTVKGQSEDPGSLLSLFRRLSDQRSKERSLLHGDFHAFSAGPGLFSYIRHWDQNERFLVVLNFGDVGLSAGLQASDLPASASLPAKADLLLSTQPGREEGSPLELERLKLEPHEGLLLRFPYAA
# B1: VB2-169 (scFv)
# scFv: QVQLVESGGGLVKPGGSLRLSCAASGFTFSDYYMSWIRQAPGKGLEWVSYISSSGSTIYYADSVKGRFTISRDNAKNSLYLQMNSLRAEDTAVYYCARSSGWYDGEFDPWGQGTLVTVSSKLSGSASAPKLEEGEFSEARVSYVLTQPPSASGTPGQRVTIS[about 80 residues not written out]FGGGTKVTVL
# Experiments:
# [1] = biological target: T1, CD98hc on the surface of human tumor …; assay: flow cytometry, 1 µg/mL scFv; average of colon cell lines HT-29, WiDr, SW-480 (± SEM)
# [2] = biological target: T1, CD98hc on the surface of human tumor …; assay: flow cytometry, 1 µg/mL scFv; average of liver cell lines SK-Hep1, HepG2 (± SEM)
# [3] = biological target: T1, CD98hc on the surface of human tumor …; assay: flow cytometry on A-549 cells, 5 µg/mL scFv, 37° C., 120 min (surface-bound scFv left after internalization)
# [4] = biological target: T1, CD98hc on the surface of human tumor …; assay: flow cytometry, 1 µg/mL scFv; average of ovarian cell lines NIH-OVCAR3, SKOV-3, TOV-112D (± SEM)
# [5] = biological target: T1, CD98hc on the surface of human tumor …; assay: flow cytometry, 1 µg/mL scFv; average of pancreas cell lines PANC-1, BxPC-3, MIA PaCa-2 (± SEM)
# [6] = biological target: T1, CD98hc on the surface of human tumor …; assay: flow cytometry, 1 µg/mL scFv; average of lung cell lines A549, NCI-H460, NCI-H69 (± SEM)
# [7] = biological target: T1, CD98hc on the surface of human tumor …; assay: flow cytometry saturation curve on A-549 cells, Lineweaver-Burk method
# [8] = biological target: T1, CD98hc on the surface of human tumor …; assay: flow cytometry on A-549 cells, 5 µg/mL scFv, 37° C., 60 min (surface-bound scFv left after internalization)
# [9] = biological target: T1, CD98hc on the surface of human tumor …; assay: flow cytometry, 1 µg/mL scFv; average of cervix cell lines ME-180, C-4I, C-33A (± SEM)
# [10] = biological target: T1, CD98hc on the surface of human tumor …; assay: flow cytometry on A-549 cells, 5 µg/mL scFv, 4° C., 120 min
# [11] = biological target: T1, CD98hc on the surface of human tumor …; assay: flow cytometry, 1 µg/mL scFv; average of stomach cell lines AGS, NCI-N-87, Kato III (± SEM)
# [12] = biological target: T1, CD98hc on the surface of human tumor …; assay: flow cytometry, 1 µg/mL scFv; average of prostate cell lines DU-145, PC-3, LNCaP (± SEM)
# [13] = biological target: T1, CD98hc on the surface of human tumor …; assay: flow cytometry, 1 µg/mL scFv; average of breast cell lines MDA-MB-435S, MDA-MB231, MCF-7 (± SEM)
binder,measurement,setting,value
B1,mean fold increase in median fluorescence over the scFv control (MF),[1],3.7 fold
same,mean fold increase in median fluorescence over the scFv control (MF),[2],2.22 fold
same,"Fold-increase in MF above the negative control, 4B5 scFv",[3],2.43 fold
same,mean fold increase in median fluorescence over the scFv control (MF),[4],4.58 fold
same,mean fold increase in median fluorescence over the scFv control (MF),[5],3.68 fold
same,mean fold increase in median fluorescence over the scFv control (MF),[6],2.77 fold
same,Kd,[7],56 nM
same,"Fold-increase in MF above the negative control, 4B5 scFv",[8],2.9 fold
same,mean fold increase in median fluorescence over the scFv control (MF),[9],4.29 fold
same,"Fold-increase in MF above the negative control, 4B5 scFv",[10],12.6 fold
same,mean fold increase in median fluorescence over the scFv control (MF),[11],4.24 fold
same,mean fold increase in median fluorescence over the scFv control (MF),[12],4.36 fold
same,mean fold increase in median fluorescence over the scFv control (MF),[13],4.28 fold

# — patent US20080085241A1 (AFFITECH, published 2008)
